Viability of KB3-1 and Nalm-6 cells after 48 h of drug alone (CellTiter-Glo), 11 doses over about 4.5 log units. % of DMSO wells, lower = more cell loss; AC50 from the fitted curve, lower = more potent. No active / inactive call. Nalm-6 was screened in two runs. AC50 is listed only for well-fitted inhibitory curves. KB3-1 is a HeLa-derived carcinoma line, Nalm-6 a B-cell precursor leukaemia line.
Assays:
[1] = system: KB3-1; assay: viability (% of DMSO control); higher = more viable cells
Method: (§1)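 Eleven-dose screen of the NCATS MIPE 3 library on cells without co-treatment; CellTiter-Glo after 48 h, as % of DMSO wells.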

[2] = system: Nalm-6; assay: as above
Method: as §1

[3] = system: Nalm-6; assay: log AC50 of viability decrease (48 h) (log10 M); higher = less potent
Method: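 Eleven-dose screen of the NCATS MIPE 3 library on cells without co-treatment; CellTiter-Glo after 48 h. AC50 from the curve fit; only inhibitory curves of the better fit classes are listed.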

SMILES	viability ([1]; 0.00078 µM) [%]	viability ([1]; 0.00234 µM) [%]	viability ([1]; 0.00702 µM) [%]	viability ([1]; 0.0211 µM) [%]	viability ([1]; 0.0632 µM) [%]	viability ([1]; 0.19 µM) [%]	viability ([1]; 0.569 µM) [%]	viability ([1]; 1.71 µM) [%]	viability ([1]; 5.12 µM) [%]	viability ([1]; 15.4 µM) [%]	viability ([1]; 46.1 µM) [%]	viability ([2]; run: 1, 0.00078 µM) [%]	viability ([2]; run: 1, 0.00234 µM) [%]	viability ([2]; run: 1, 0.00702 µM) [%]	viability ([2]; run: 1, 0.0211 µM) [%]	viability ([2]; run: 1, 0.0632 µM) [%]	viability ([2]; run: 1, 0.19 µM) [%]	viability ([2]; run: 1, 0.569 µM) [%]	viability ([2]; run: 1, 1.71 µM) [%]	viability ([2]; run: 1, 5.12 µM) [%]	viability ([2]; run: 1, 15.4 µM) [%]	viability ([2]; run: 1, 46.1 µM) [%]	viability ([2]; run: 2, 0.00078 µM) [%]	viability ([2]; run: 2, 0.00234 µM) [%]	viability ([2]; run: 2, 0.00702 µM) [%]	viability ([2]; run: 2, 0.0211 µM) [%]	viability ([2]; run: 2, 0.0632 µM) [%]	viability ([2]; run: 2, 0.19 µM) [%]	viability ([2]; run: 2, 0.569 µM) [%]	viability ([2]; run: 2, 1.71 µM) [%]	viability ([2]; run: 2, 5.12 µM) [%]	viability ([2]; run: 2, 15.4 µM) [%]	viability ([2]; run: 2, 46.1 µM) [%]	log AC50 of viability decrease ([3]; run: 1)	log AC50 of viability decrease ([3]; run: 2)
CCOc1cc(/C=C2/C(=O)N(c3ccccc3)N=C2C)cc(Cl)c1OCC(=O)OC	100	98.8	101	111	107	105	103	101	102	100	107	118	116	115	127	117	116	114	117	106	104	15	108	109	108	111	106	114	109	111	102	92.8	55.3	-4.58	-4.73
CCn1c(-c2nonc2N)nc2c(C#CC(C)(C)O)ncc(OC[C@H]3CCCNC3)c21	102	104	101	97.5	98.6	93.5	98.3	94.2	85.9	87	15.7	105	109	103	95.7	74.8	67.2	64.5	58.3	58.7	53.5	0.607	104	108	106	94.5	84.3	66.4	66.6	62.1	59.3	59.9	0.314	-5.38	-4.98
CNC(=O)C1=CC=C(C)C(=C1)N2C(=C/C(=C(/Br)C2=O)OCC3=C(F)C=C(F)C=C3)\C	96.3	98.1	98.1	101	101	102	100	99	96.2	93.3	69.4	110	111	103	120	114	107	113	99.7	82.9	83.8	54.8	107	106	109	106	110	110	109	107	102	99.9	67.3	-4.78	
COC1(C[S+]([O-])c2ccccc2)CCN(CCc2c[nH]c3ccc(F)cc23)CC1 (centres undefined)	100	96.2	94.6	95.8	94.8	92.4	91.9	89.5	89.2	90.5	82.8	103	99.1	108	111	106	113	97.9	104	96.2	90.6	73.9	111	111	104	113	111	103	99.8	105	104	95.8	80.6	-4.78	
C[S+]([O-])c1ccc(-c2nc(-c3ccc(F)cc3)c(-c3ccncc3)[nH]2)cc1 (centres undefined)	102	99.2	96.4	99.6	102	93.5	102	101	104	91.9	85.1	121	116	119	124	110	115	111	115	103	103	78.2	113	111	107	108	102	112	115	115	106	109	94.7	-4.68	
NC1=C(Cl)C(=CC=N1)OC2=C(F)C=C(NC(=O)\C3=C\N\C=C(C3=O)\C4=CC=C(F)C=C4)C=C2	103	103	95.9	96.8	96.8	97	98.6	93.2	93	93.1	16.6	121	112	116	111	105	102	103	104	91.2	82.4	5.21	106	98.1	104	106	103	104	102	107	96.1	85.5	2.7	-4.63	-4.63
N#Cc1ccc(COC[C@H]2O[C@@H](n3c(NCc4ccc(Cl)c(Cl)c4)nc4c(N)ncnc43)[C@H](O)[C@@H]2O)cc1	101	102	102	103	102	98.9	105	101	99.8	95.4	14	106	111	102	105	111	98.2	92.8	81.7	67.7	66	1.16	106	107	107	103	106	107	105	109	88.8	86.9	2.16	-4.78	-4.63
Cc1cc2c(C(C)C)c(O)c(O)c(C=O)c2c(O)c1-c1c(C)cc2c(C(C)C)c(O)c(O)c(C=O)c2c1O [(-)-Gossypol]	98.7	103	101	100	100	98.7	98	98	98.9	93.9	7.87	116	117	119	112	122	110	123	113	84.6	34.7	4.38	109	110	105	111	110	106	111	100	82.4	21.6	4.36	-5.03	-5.08
Cc1cccc(-c2nn(C(=S)Nc3ccccc3)cc2-c2ccnc3ccccc23)n1 [A 83-01]	104	109	106	110	109	110	110	108	108	107	82.4	96	106	106	107	109	100	109	104	90.2	80.5	49.5	98.6	100	98.2	103	102	103	94.7	92.8	87	81.4	48.9	-4.78	-4.73
CC(=O)NC(C)c1ccc(Oc2ccc(OC(C)C)cc2)cc1 (centres undefined) [ACC1 BMS]	97	97.4	105	95.3	99.9	104	106	106	104	83.9	73.4	63.5	90.7	97.9	100	106	108	106	106	74.6	61.2	36.7	97.3	92.2	94.6	92.2	104	108	103	101	89.4	73.6	42.7		-4.78
CCOC(CN1C(=O)[C@](CC(=O)Nc2ccc(C)cc2)(NC(=O)Nc2ccc(C)cc2)c2ccccc21)OCC [AG-041R]	105	101	102	104	105	108	107	109	110	102	10.3	117	110	112	122	124	120	109	118	117	99.5	2.12	107	107	107	110	106	104	108	111	100	90.6	2.13	-4.63	-4.63
CCN(CCO)CCCOc1ccc2c(Nc3cc(CC(=O)Nc4cccc(F)c4)[nH]n3)ncnc2c1 [AZD-1152-HQPA]	96.2	95.3	92	82.8	84.7	84.1	81	82	83.4	83.3	59.2	94.6	99	66.7	61.7	63.1	64.7	61.3	60.2	44.5	45.8	8.82	92.1	105	84.4	84.1	80.4	83	80.2	84.4	55	52.4	2.4	-4.98	-4.73
CN(C)C(=O)c1ccc(S(=O)(=O)c2ccc(NC(=O)[C@@](C)(O)C(F)(F)F)c(Cl)c2)cc1 [AZD-7545]	98.6	104	99.9	103	104	107	97	90	81.4	94.8	77.6	67.6	98.7	103	113	100	103	105	87.5	76.5	76	78.1	94.8	101	106	102	108	108	98.8	90	77.5	72.7	78.9		-5.78
C[C@]\12CC[C@H](O)CC1=C/C[C@@H]3[C@@H]2CC[C@@]\4(C)[C@H]3C\C=C4C5=CN=CC=C5 [Abiraterone]	102	105	107	107	114	111	104	103	101	98.5	84.9	105	118	113	123	120	124	116	118	109	95.3	4.95	107	103	104	106	99.1	107	83.3	56.6	14.9	5.94	0.608	-4.63	-5.73
CC1(C)SCCN(S(=O)(=O)c2ccc(OCC#CCO)cc2)[C@H]1C(=O)NO [Apratastat]	98.4	101	96.1	102	97.7	94.1	99.9	93.6	92.9	95.5	83.1	110	112	105	107	96.6	84.9	80.1	70.2	63.8	69.9	55.3	108	103	99.6	103	105	103	107	105	110	103	93.6	-6.63	

Source: the supplement of paper PMC4996465
